Measurements from the supplement of paper PMC11417369.
Some of the results follow.

System: PfAP2-HC AP2 domain (GST-tagged)
Assay: gcPBM binding intensity (ln(normalized median fluorescence intensity)); higher = stronger DNA binding
Summary of the method: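 In this array assay, P. falciparum DNA-binding domains with a GST tag, expressed in E. coli, were applied for 1 h to primer-extended double-stranded 36-bp intergenic genomic probes and negative controls on an Agilent 4 × 180k array. Bound protein was visualised with Alexa488 anti-GST antibody at 488 nm. Binding intensity is the highest Masliner-normalised natural-log median intensity across replicate spots of either probe orientation.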

Sequence | gcPBM binding intensity (ln)
ATCATTTATATTTTATGTACATATATAATTATATTT [XGTACX_site2129] | 9.92
AAAAAAATAAATAAATGTACACATATATATATATAT [XGTACX_site4350] | 9.81
TAGAGGAATATAATATGTACATAATATAATGTATAT [XGTACX_site2838] | 9.86
TTATGTCTAATGAAATGTACATGAATAAATTAAAGT [XGTACX_site8138] | 9.78
AGTGAAATTTTAGTCACACAGTTTTATCTTTAAGAA [CACACA_site5202] | 9.51
AATTATATAAGCCACGCATGTGTGCATAAAAATACA [TGCATGCA_site114] | 9.79
AATGAGAATTTTATTACACACTTTAATATATTTTCA [CACACA_site784] | 9.66
AATTTTCAATAGTATACACACAATTCTATAAATATA [CACACA_site6650] | 9.61
CACGTGAAAATACAAGCATGCAAGCTTTTTTTTTCT [TGCATGCA_site642] | 9.46
AATTTTTTTATAGCACGTACAAAAATACAAAATACA [XGTACX_site1569] | 9.51
AAAAAAAAAAAGAAGGGTACATATTATATATAATAT [XGTACX_site6204] | 9.66
TATATATAAACATAATGTACATATAATAAGTAATAT [XGTACX_site497] | 9.8
AGCCCAAAAAAGTAGACATGCAAAAACTTTACAACT [TGCATGCA_site550] | 9.57
CGATTACTAATTTTTAGTACATATAATCAATATGTA [XGTACX_site7857] | 9.58
ATCTATTTCTATTGTTGTACTTATTTTTCATTGTTT [XGTACX_site6942] | 9.94
ATGTAGCCTTACGCTTGTACGAATATCTTAATTTTT [XGTACX_site4331] | 9.67
AAAAAAAATAGACACACACACATACACATAAATATA [CACACA_site7742] | 10.5
AGGGTTACAAGAGGAACACACAAAAAAATAAATAAA [CACACA_site1436] | 10
ATTAAATCTATATATACACACATGTTTGGTATATTC [CACACA_site2657] | 9.87
TTTGTAATAAACTACTTTTTTTTTTTTTTTTTTTTT [CACACA_negctrl_site571] | 9.2
TTTATATTACAATAATATATTAAAAAATAAAATATA [TGCATGCA_negctrl_site18] | 9.17
TATACAATATAAAATACACACGCACCCAAAAAAAAA [CACACA_site9174] | 10.3
ATTTTTTTATTTGATTGTACAATTTTCTTTCAAAAT [XGTACX_site2902] | 9.71
ATATAATGTGTAGGCCGTATTTACGTTTGGCAATCA [CACACA_negctrl_site1130] | 9.99
